Patent US20160130324A1 (SHIRE HUMAN GENETIC THERAPIES, published 2016)

T1: rhC1s (human, UniProt P09871 16-688)
T1 construct: Enzyme of the colorimetric peptide cleavage assay; Human is read from the printed label 'rhC1s'
T1 sequence (looked up): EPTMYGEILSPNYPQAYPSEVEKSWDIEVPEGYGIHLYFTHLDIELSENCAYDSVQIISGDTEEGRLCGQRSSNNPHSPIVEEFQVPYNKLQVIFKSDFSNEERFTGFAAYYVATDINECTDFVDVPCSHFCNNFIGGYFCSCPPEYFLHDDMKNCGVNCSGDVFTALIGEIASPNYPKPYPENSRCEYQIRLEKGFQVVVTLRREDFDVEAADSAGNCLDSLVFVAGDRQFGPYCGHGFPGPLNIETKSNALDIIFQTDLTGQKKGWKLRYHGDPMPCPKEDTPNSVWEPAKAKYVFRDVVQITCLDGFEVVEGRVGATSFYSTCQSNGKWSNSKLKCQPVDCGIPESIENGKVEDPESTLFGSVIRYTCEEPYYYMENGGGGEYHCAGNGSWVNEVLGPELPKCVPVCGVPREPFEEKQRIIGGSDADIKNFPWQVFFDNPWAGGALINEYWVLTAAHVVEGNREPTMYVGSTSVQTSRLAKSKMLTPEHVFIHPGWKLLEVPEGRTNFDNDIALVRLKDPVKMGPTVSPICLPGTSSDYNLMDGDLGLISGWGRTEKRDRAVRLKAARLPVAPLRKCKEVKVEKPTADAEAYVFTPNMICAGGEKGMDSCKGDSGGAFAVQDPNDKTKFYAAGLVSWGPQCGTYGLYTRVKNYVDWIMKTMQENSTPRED

T2: biotin-C1s
T2 construct: Used in the functional ELISA that measures the C1s/C1-INH complex
T2 sequence (P09871 16-688, species assumed, looked up): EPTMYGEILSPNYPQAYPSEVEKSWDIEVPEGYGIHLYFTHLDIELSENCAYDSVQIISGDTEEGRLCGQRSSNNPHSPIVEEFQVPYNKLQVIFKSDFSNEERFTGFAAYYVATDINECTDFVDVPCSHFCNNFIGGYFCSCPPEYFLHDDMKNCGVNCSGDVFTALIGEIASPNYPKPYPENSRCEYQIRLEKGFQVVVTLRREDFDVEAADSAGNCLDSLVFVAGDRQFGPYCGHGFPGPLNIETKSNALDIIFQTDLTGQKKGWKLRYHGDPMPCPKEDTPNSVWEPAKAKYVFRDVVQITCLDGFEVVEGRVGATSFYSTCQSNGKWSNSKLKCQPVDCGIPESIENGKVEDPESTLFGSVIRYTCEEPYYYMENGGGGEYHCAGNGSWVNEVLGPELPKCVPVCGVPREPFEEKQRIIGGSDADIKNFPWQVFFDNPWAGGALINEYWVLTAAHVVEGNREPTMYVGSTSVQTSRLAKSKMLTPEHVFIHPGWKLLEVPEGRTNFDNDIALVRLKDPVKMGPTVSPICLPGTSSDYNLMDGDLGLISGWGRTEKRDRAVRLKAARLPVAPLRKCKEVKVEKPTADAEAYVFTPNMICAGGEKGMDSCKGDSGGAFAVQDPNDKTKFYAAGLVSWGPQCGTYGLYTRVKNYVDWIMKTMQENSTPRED


What was measured:
rhC1s [1] = biological target: T1, rhC1s; assay: inhibition of rhC1s cleavage of a colorimetric peptide substrate, average OD; concentrations from mass spec sizes; C is the midpoint of the 4-parameter fit [panel A]
rhC1s [2] = biological target: T1, rhC1s; assay: inhibition of rhC1s cleavage of a colorimetric peptide substrate, average OD; concentrations from gel estimated sizes; C is the midpoint of the 4-parameter fit [panel B]
biotin-C1s = biological target: T2, biotin-C1s; assay: functional ELISA of the C1s/C1-INH complex: diluted C1-INH with biotin-C1s, captured on a streptavidin plate, anti-C1-INH-HRP, OD450; C is the midpoint of the 4-parameter fit
Experimental: This method was used to test the effector dead Fc constructs made for PK studies FIG. 8. The ELISA protocol was as follows: [0334] 60 μL diluted C1-INH+12 μL biotin-C1s [0335] 30 min incubation at RT [0336] Transfer 50 μL of complexes to streptavidin coated plate [0337] 10 min incubation at RT, wash 5× [0338] Add 50 μL of anti-C1-INH-HRP [0339] 60 min incubation at RT, wash 5× [0340] Add 100 μL of TMB substrate [0341] 15 minute incubation at RT [0342] […] Read at OD450

[3] = biological target: T3, FcγRI, extracellular domain; assay: SPR (Biacore), FcγRI captured by anti-His on CM5
T3 construct: extracellular domain; also called FcγR1; FcgR1
T3 sequence (P12314 16-292): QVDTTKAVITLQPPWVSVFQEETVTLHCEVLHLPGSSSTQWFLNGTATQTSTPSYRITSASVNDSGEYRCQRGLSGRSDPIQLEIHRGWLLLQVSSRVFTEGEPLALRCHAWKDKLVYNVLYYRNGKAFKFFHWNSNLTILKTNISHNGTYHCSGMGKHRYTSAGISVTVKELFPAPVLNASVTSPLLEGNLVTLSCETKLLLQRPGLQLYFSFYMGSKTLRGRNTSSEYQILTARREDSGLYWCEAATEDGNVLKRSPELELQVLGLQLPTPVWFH
Experimental: Binding to the extracellular domain of the FcγR1 was measured by surface plasmon resonance (SPR) using a Biacore system. The Biacore capture approach is depicted in FIG. 7. The assay setup was as follows: [0314] HBS-P+ used as running buffer [0315] Coupling anti-His (GE, anti-His Kit) on CM5 to 16000 Ru
Sample Preparation [0319] […] Other samples (N-hFcIgG4m-C1 Inh, N-hFcIgG4m-C1-INH Tr, N-hFcLala-C1-INH and N-hFclala-C1-INH Tr) are diluted in HBS-P+ buffer to 100, 50, 25, 12.5, 6.25 nM

[4] = biological target: T4, Fc neonatal receptor (FcRn), extracellular domain; assay: SPR (Biacore), FcRn amine-coupled to CM5, running buffer pH 6.0
T4 construct: extracellular domain
Experimental: Binding to the extracellular domain of the FcRN was measured by surface plasmon resonance (SPR) using a Biacore system.
Direct immobilization with FcRn was achieved via amine coupling of a CM5 chip with FcRn under the following conditions: [0291] FcRn (Sino Biological Inc or in-house BD1) is diluted in Acetate buffer pH 5.0 (Cat#BR-1003-51) to 10 μg/mL. [0292] Flow rate: 10 μl/min [0293] Final coupling signal 354 Ru [0294] Running buffer: PBS-P+, pHed to 6.0
The kinetic binding study was done using the following protocol. Samples were diluted in PBS-P+ to 100, 50, 25, 12.5, 6.25, 3.125, 0 nM. The parameters were set as follows: [0296] Association 300 s and Dissociation 600 s at Flow rate 30 μL/min [0297] Regeneration with 25 mM Tris, 150 mM NaCl pH 8.0

Binder | IC50 (rhC1s [1]) [nM] | IC50 (rhC1s [2]) [nM] | EC50 (biotin-C1s) [nM] | Kd [3] [nM] | koff [3] [s⁻¹] | kon [3] [M⁻¹ s⁻¹] | Kd [4] [nM] | koff [4] [s⁻¹] | kon [4] [M⁻¹ s⁻¹]
Fc-C1inh(Tr) (Fc fusion, also called construct 2) Fc fusion chain: [letters of human IgG1 Fc not shown]GSFCPGPVTLCSDLESHSTEAVLGDALVDFSLKLYHAFSAMKKVETNMAFSPFSIASLLTQVLLGAGENTKTNLESILSYPKDFTCVHQALKGFTTKGVTSVSQIFHSPDLAIRDTFVNASRTLYSSSPRVLSNNSDANLELINTWVAKNTNNKISRLLDSLPSDTRLVLLNAIYLSAKWKTTFDPKKTRMEPFHFKNSVIKVPMMNSKKYPVAHFIDQTLKAKVGQLQLSHNLSLVILVPQNLKHRLEDMEQALSPSVFKAIMEKLEMSKFQPTLLTLPRIKVTTSQDMLSIMEKLEFFDFSYDLNLCGLTEDPDLQVSAMQHQTVLELTETGVEAAAASAISVARTLLVFEVQQPFLFVLWDQQHKFPVFMGRVYDPRA | 6.64 | 5.68 | – | – | – | – | – | – | –
full length C1-inhibitor with an N-terminal IgG1 Fc (N-hFc-C1-INH) (Fc fusion, Used as positive control in the FcγRI SPR assay; also called hFc IgG1-C1-INH) [letters of human IgG1 Fc not shown]NPNATSSSSQDPESLQDRGEGKVATTVISKMLFVEPILEVSSLPTTNSTTNSATKITANTTDEPTTQPTTEPTTQPTIQPTQPTTQLPTDSPTQPTTGSFCPGPVTLCSDLESHSTEAVLGDALVDFSLKLYHAFSAMKKVETNMAFSPFSIASLLTQVLLGAGENTKTNLESILSYPKDFTCVHQALKGFTTKGVTSVSQIFHSPDLAIRDTFVNASRTLYSSSPRVLSNNSDANLELINTWVAKNTNNKISRLLDSLPSDTRLVLLNAIYLSAKWKTTFDPKKTRMEPFHFKNSVIKVPMMNSKKYPVAHFIDQTLKAKVGQLQLSHNLSLVILVPQNLKHRLEDMEQALSPSVFKAIMEKLEMSKFQPTLLTLPRIKVTTSQDMLSIMEKLEFFDFSYDLNLCGLTEDPDLQVSAMQHQTVLELTETGVEAAAASAISVARTLLVFEVQQPFLFVLWDQQHKFPVFMGRVYDPRA | 0.612 | 0.437 | – | – | – | – | – | – | –
truncated C1-inhibitor with an N-terminal IgG4 S241P Fc (N-hFcIgG4m-C1-INH Tr) (Fc fusion, Effector dead construct; also called N-IgG4m-C1-INH Tr; Tr C1-INH hFc IgG4m) [letters of human IgG4 Fc with S228P (EU numbers) not shown]GSFCPGPVTLCSDLESHSTEAVLGDALVDFSLKLYHAFSAMKKVETNMAFSPFSIASLLTQVLLGAGENTKTNLESILSYPKDFTCVHQALKGFTTKGVTSVSQIFHSPDLAIRDTFVNASRTLYSSSPRVLSNNSDANLELINTWVAKNTNNKISRLLDSLPSDTRLVLLNAIYLSAKWKTTFDPKKTRMEPFHFKNSVIKVPMMNSKKYPVAHFIDQTLKAKVGQLQLSHNLSLVILVPQNLKHRLEDMEQALSPSVFKAIMEKLEMSKFQPTLLTLPRIKVTTSQDMLSIMEKLEFFDFSYDLNLCGLTEDPDLQVSAMQHQTVLELTETGVEAAAASAISVARTLLVFEVQQPFLFVLWDQQHKFPVFMGRVYDPRA | 1.81 | 1.55 | 3.65 | 7.28 | 0.000862 | 118000 | 70.7 | 0.00946 | 134000

More lines, in order of falling IC50 (rhC1s [1]), values ahead:

IC50 (rhC1s [1]) [nM] | IC50 (rhC1s [2]) [nM] | EC50 (biotin-C1s) [nM] | Kd [3] [nM] | koff [3] [s⁻¹] | kon [3] [M⁻¹ s⁻¹] | Kd [4] [nM] | koff [4] [s⁻¹] | kon [4] [M⁻¹ s⁻¹] | Binder
1.08 | 0.921 | 3.43 | – | – | – | – | – | – | truncated C1-inhibitor with an N-terminal IgG1 LALA Fc (N-hFcLala-C1-INH Tr) (Fc fusion, Effector dead construct; also called Tr C1-INH hFc IgG1 LALA; LALA TR) [letters of human IgG1 Fc with changes not shown]GSFCPGPVTLCSDLESHSTEAVLGDALVDFSLKLYHAFSAMKKVETNMAFSPFSIASLLTQVLLGAGENTKTNLESILSYPKDFTCVHQALKGFTTKGVTSVSQIFHSPDLAIRDTFVNASRTLYSSSPRVLSNNSDANLELINTWVAKNTNNKISRLLDSLPSDTRLVLLNAIYLSAKWKTTFDPKKTRMEPFHFKNSVIKVPMMNSKKYPVAHFIDQTLKAKVGQLQLSHNLSLVILVPQNLKHRLEDMEQALSPSVFKAIMEKLEMSKFQPTLLTLPRIKVTTSQDMLSIMEKLEFFDFSYDLNLCGLTEDPDLQVSAMQHQTVLELTETGVEAAAASAISVARTLLVFEVQQPFLFVLWDQQHKFPVFMGRVYDPRA
0.744 | 0.531 | 0.834 | – | – | – | – | – | – | full-length C1-inhibitor with an N-terminal IgG1 LALA Fc (N-hFcLala-C1-INH) (Fc fusion, Effector dead construct; also called FL C1-INH hFc IgG1 LALA; LALA FL) [letters of human IgG1 Fc with changes not shown]NPNATSSSSQDPESLQDRGEGKVATTVISKMLFVEPILEVSSLPTTNSTTNSATKITANTTDEPTTQPTTEPTTQPTIQPTQPTTQLPTDSPTQPTTGSFCPGPVTLCSDLESHSTEAVLGDALVDFSLKLYHAFSAMKKVETNMAFSPFSIASLLTQVLLGAGENTKTNLESILSYPKDFTCVHQALKGFTTKGVTSVSQIFHSPDLAIRDTFVNASRTLYSSSPRVLSNNSDANLELINTWVAKNTNNKISRLLDSLPSDTRLVLLNAIYLSAKWKTTFDPKKTRMEPFHFKNSVIKVPMMNSKKYPVAHFIDQTLKAKVGQLQLSHNLSLVILVPQNLKHRLEDMEQALSPSVFKAIMEKLEMSKFQPTLLTLPRIKVTTSQDMLSIMEKLEFFDFSYDLNLCGLTEDPDLQVSAMQHQTVLELTETGVEAAAASAISVARTLLVFEVQQPFLFVLWDQQHKFPVFMGRVYDPRA
0.718 | 0.513 | 0.958 | 23.1 | 0.00167 | 72300 | 30 | 0.00562 | 187000 | full-length C1-inhibitor with an N-terminal IgG4 S241P Fc (N-hFcIgG4m-C1-INH) (Fc fusion, Effector dead construct; also called N-IgG4m-C1-INH; FL C1-INH hFc IgG4m) [letters of human IgG4 Fc with S228P (EU numbers) not shown]NPNATSSSSQDPESLQDRGEGKVATTVISKMLFVEPILEVSSLPTTNSTTNSATKITANTTDEPTTQPTTEPTTQPTIQPTQPTTQLPTDSPTQPTTGSFCPGPVTLCSDLESHSTEAVLGDALVDFSLKLYHAFSAMKKVETNMAFSPFSIASLLTQVLLGAGENTKTNLESILSYPKDFTCVHQALKGFTTKGVTSVSQIFHSPDLAIRDTFVNASRTLYSSSPRVLSNNSDANLELINTWVAKNTNNKISRLLDSLPSDTRLVLLNAIYLSAKWKTTFDPKKTRMEPFHFKNSVIKVPMMNSKKYPVAHFIDQTLKAKVGQLQLSHNLSLVILVPQNLKHRLEDMEQALSPSVFKAIMEKLEMSKFQPTLLTLPRIKVTTSQDMLSIMEKLEFFDFSYDLNLCGLTEDPDLQVSAMQHQTVLELTETGVEAAAASAISVARTLLVFEVQQPFLFVLWDQQHKFPVFMGRVYDPRA
